Experimental data: patent publication US12551573B2, “Compositions and methods for the targeting of PCSK9” (Scribe Therapeutics Inc., priority 2022, dated 2026)
Numbering of substitutions follows the chain as printed. Read-outs that look alike come from different tables or passages of the source.

Tested on: HBEGF locus
Format: cell-based, human
Details: high-throughput screen of dXR repression of the HBEGF gene
[1] = abundance of each domain in the library before and after diphtheria toxin selection, HEK293T cells
[2] = change in abundance of each domain in the library before and after diphtheria toxin selection

B1: DOMAIN_16063 (protein, listed as Macaca mulatta)
chain: ACESITFGDVAIDFSHQEWEYLNLVQKTLYQEVMMENYDNLVSLGHSISKPDLITLLEQGKEPWMIVGEETRGECTDLDSR
[1]
  Log2 (fold change): 2.1603

B2: DOMAIN_16084 (protein, listed as Enhydra lutris)
chain: SQVSVTFEDVAVLFTRDEWRKLGPSQRNVYQEVMLENYSNLVSLGLLFSKPRVISLLQEGEDPWKVEKESPGGPSLGWNSS
[1]
  Log2 (fold change): 3.0131

B3: DOMAIN_16147 (protein, listed as Pongo sp.)
chain: ARGKSKSKAPVTFGDLAIYFSQEEWEWLSPIQKDLYEDVMLENYRNLVSLGLSFRRPNVITLLEKGKAPWMVEPVRRRRAP
[1]
  Log2 (fold change): 2.5699

B4: DOMAIN_16184 (protein)
chain: QPQGTMTFKDVEVTFSQDEWGLLDASQRNLYRDVMLENYGNMASVVGPFTKPALISWLEAREPWGLNVQGVQLKGNPGAAP
modifications: Ovis aries
[1]
  Log2 (fold change): 3.7743

B5: DOMAIN_16188 (protein, listed as Otolemur garnettii)
chain: LQESVTFRDVAVLFSQDEWLHLDSAQRTLYREVMLENYNNLASLGIPFSMPKVICQLQQGEDPCTVEGEVPSDSCIDAKGQ
[1]
  Log2 (fold change): 2.5145

B6: DOMAIN_16238 (protein, listed as Pongo sp.)
chain: FQEPVTFEDVAVYFTQNEWASLHPTQRALYRGVMLENYANVTSLSAFPFPKPDLIFQLEQGEAAWGPDPWTLDGGEALRGM
[1]
  Log2 (fold change): 3.8734

B7: DOMAIN_25405 (protein, listed as Desmodus rotundus)
chain: SVTFRDVIVDFTQEEWQQLKPAQKDLYRDVMMEVYWNLVSLDVETRPDAKESDPQEDDWEDRPSVVVIAEGPTRNGARSYT
[2]
  Log2 (fold change): 3.8846

B8: DOMAIN_16266 (protein, listed as Otolemur garnettii)
chain: QELLTFKDVSVEFSMDEWACLDPAQQTLYQDVMLENYRHLVFLGLTLSKPDLITCLEQSKEPWKVKSHQTVVKHPAVSDPP
[1]
  Log2 (fold change): 3.075

B9: DOMAIN_16274 (protein, listed as Otolemur garnettii)
chain: FQGLMTFEDVTVEFTQWEWGQLDPAQKDLYREVMLENFRNLASLGLPLSKPYVICQLEEGQEPCMLEKEISVGTQSVGEAT
[1]
  Log2 (fold change): 2.7655

B10: DOMAIN_16323 (protein, listed as Trichechus manatus)
chain: PPESVTFEDVAVYFTQKEWASLMPAQKALYRDVMLENYEAVAFLAPATSKPALISQLEQGVEPSFSQAQGDLSMRDRGAGL
[1]
  Log2 (fold change): 4.0053

B11: DOMAIN_16340 (protein)
chain: PQKLVTFEDVAVYFTQTEWDGLSTAQRALYRDVMLENYGNVASLGFPLLKPAVISQLEGGGELEGPSSLASGAGTGPQGLW
modifications: Ovis aries
[1]
  Log2 (fold change): 2.778

B12: DOMAIN_16372 (protein, listed as Odocoileus virginianus)
chain: SRSPLTFGDVAVEFSGEEWARLDSAQRSLHRSVMLENYRNLASLGLCMSKPEMISSLEQRKEPWAVKRKSTRGRCPDSQTA
[1]
  Log2 (fold change): 4.2664

B13: DOMAIN_16378 (protein, listed as Callithrix jacchus)
chain: PQKSVTFEDVAVYFTQAEWDGLSPAQRTLYRDVMLENYGNVASLGFPLLKPAVISQLEGGGELGGPSPLAAGTGLHVLRTV
[1]
  Log2 (fold change): 2.9868

B14: DOMAIN_16399 (protein, listed as Rhinopithecus roxellana)
chain: FQRSVLFSDVSIDFSPEEWEYLDLEQKDLYRDVMLENYSNLVSLGCFISKPDVISLLEQGKEPWKVVRKGRRQYPDLETKY
[1]
  Log2 (fold change): 4.0639

B15: DOMAIN_26070 (protein, listed as Geotrypetes seraphini)
chain: DRVKFTFSDVAVYFSEEEWQLLEEQQKELYQNVMKENYTTLMSLGYTTVKPDVISKIEQGKQPLVSSPSGSKGRRAIGRPS
[2]
  Log2 (fold change): 3.7958

B16: DOMAIN_16478 (protein, listed as Rhinopithecus roxellana)
chain: MVSFEDVAVPLSQEEWNCLIPAQRGLYRDVMLETYGNLVSLGLQASKPDVISRLEQGDEPWTPHILRTQGSWSWRHKREGY
[1]
  Log2 (fold change): 2.8285

B17: DOMAIN_16516 (protein, listed as Macaca mulatta)
chain: RPESVTFEDVAVYFSENEWIGLGPAQRALYRDVMLENYGAVASLAAFPFPKPALISQLERGEAPWCSVPWGALDGEDPRSI
[1]
  Log2 (fold change): 3.8473

B18: DOMAIN_16517 (protein, listed as Callithrix jacchus)
chain: EPGPVTFGDVAVYFSREEWGCLRPAQRALYRDVMRETYSHLGALGVEGSKPALISWVEEEAELWGPAAQDPEVAKRPTEAD
[1]
  Log2 (fold change): 3.3189

B19: DOMAIN_16576 (protein)
chain: SQESVSFKDVTVGFTQEEWQHLDPSQRALYRDVMLENYSNLVSVGYCVHKPEVIFRLQQGEEPWKLEEEFPSQSFPEVWTA
modifications: Pan troglodytes
[1]
  Log2 (fold change): 2.6949

B20: DOMAIN_16597 (protein)
chain: AQESVMFSDVSIDFSQEEWECLNDDQRDLYRDVMLENYSNLVSMAGHSISKPNVISYLEQGKEPWLVDREITSGQWPVLES
modifications: Cebus imitator
[1]
  Log2 (fold change): 2.9869

B21: DOMAIN_26322 (protein, listed as Geotrypetes seraphini)
chain: MQVKFEDVAVSFSQEEWEYLDEGQKELYREVMKENYETLLSLGLKCLQKIHESDRPFTYPACGKSFNHQSNLRKHKRNHTG
[2]
  Log2 (fold change): 2.9265

B22: DOMAIN_16618 (protein, listed as Ursus maritimus)
chain: HQDLVTFKDVAVYFTQTEWAGLSPAQKALYRSVMLENYGNLTSLGYPVPKPALISLLEGGNLPWGLEAQDNPSAERTKDIC
[1]
  Log2 (fold change): 3.1184

B23: DOMAIN_16629 (protein)
chain: SLGSELFRDVAIVFSQEEWQWLAPAQRDLYRDVMLETYSNLVSLGLAISKPDVISFLEQGREPWMVERVVAGGLCPVLESR
modifications: Cebus imitator
[1]
  Log2 (fold change): 3.7569

B24: DOMAIN_16630 (protein)
chain: B6 chain with A20T, H23Q, T25S, Y30F, G32E, N40T, Q57R, D73A, G75E, M81L
modifications: Cebus imitator
[1]
  Log2 (fold change): 3.2435

B25: DOMAIN_16638 (protein, listed as Macaca nemestrina)
chain: YQTPVSFKDVVVGFTQEEWHRLSPAQRALYRDVMLETYSNLLSVGYEGTKPDVILRLEQEEAPWIGEAACPGCHCWEDIWQ
[1]
  Log2 (fold change): 3.3871

B26: DOMAIN_16648 (protein, listed as Physeter macrocephalus)
chain: DEALMAFKDVAVAFTQKEWKLLSPAQRTLYRDVMLENYSHMVSLGIAFPKPKLITQLEQGEEPWREESESLLDLCPAEPRT
[1]
  Log2 (fold change): 3.629

B27: DOMAIN_16651 (protein)
chain: QAQETLTFEDVAVDFTWEEWQLLAPPQKDLYRDVMLENYSNLLSVGFQASKPNVLSKLGQGEPWTMEDEIHCQTRSEIWKV
modifications: Delphinapterus leucas
[1]
  Log2 (fold change): 2.0926
